Experimental data from PubChem BioAssay AID624418 (National Center for Advancing Translational Sciences (NCATS), 2012).
The campaign covered roughly 410,000 compounds. About 530 (0.13%) were called active. The inconclusive results got no clear call from the source; some entries with a clear call stand among them for comparison. Calls follow the shape of the dose curve; as a rule, active = well fitted inhibition curve with a large enough effect; inconclusive = small, poorly fitted or top-dose-only effect, or another doubt; inactive = no such curve, though single readings can be large or run the other way. A potency beside an inconclusive call is a rough fit, not a confirmed value.

assay: qHTS of GLP-1 Receptor Inverse Agonists: Cytotox Screen; conditions: HEK293 cAMP-luciferase reporter cells, luminescence, 24 h; series mostly up to 38.3 µM
Procedure, shortened: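 A 23 nL compound transfer followed 12 hours of cell culture at 37 deg C; exposure then lasted 24 hr. Luciferase assay detection reagent was dispensed and plates read for luminescence after a 12 min room-temperature wait.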
Potency is read from the fitted curve at half-maximal effect.

Compound | Potency
COc1ccc(-c2cc(C(F)(F)F)nc(S(C)(=O)=O)n2)cc1 | inconclusive: 12.6 µM [inhibitor, partial curve, poor fit]
O=C(Cc1ccc(Br)cc1)Nc1cccc(S(=O)(=O)N2CCOCC2)c1 | inactive
CCN(C(=O)c1cc([N+](=O)[O-])ccc1NCc1cccnc1)c1ccccc1 | inconclusive: 11.2 µM [inhibitor, single point]
CCN(CC)CCNC(=O)c1cn(CC)c2cc(N3CCN(C)CC3)c(F)cc2c1=O | inactive
CCn1c(O)c(N=NC(=S)NCC2CCCO2)c2ccccc21 (stereo unspecified) | inconclusive: 2.51 µM [inhibitor, full curve]
COc1ccc(NC(=O)CN(C)C(=O)c2cccc3ccccc23)cc1 | inactive
Cn1cc(C2=C(c3ccc(Cl)cc3Cl)C(=O)NC2=O)c2ccccc21 | inactive
COc1ccc(CCN2C(=O)CC(C(N)=O)SC2=Nc2ccccc2)cc1 (stereo unspecified) | inconclusive: 12.6 µM [inhibitor, single point]
O=C(NNC(=S)NC1CCCCC1)c1ccccc1Cl | inconclusive: 0.794 µM [inhibitor, full curve, poor fit]
O=S(=O)(NCCO)c1cccc2cccnc12 | inconclusive: 1 µM [inhibitor, full curve, poor fit]
CCOC(=O)C1=NN(c2ccccc2)C(c2ccccc2)CC1=O (stereo unspecified) | inconclusive: 28.2 µM [inhibitor, single point]
O=C(CCC1CCCCC1)NCCN1C2=NC[C@@H](Cc3ccccc3)N2C[C@H]1Cc1ccc(O)cc1 | inconclusive: 11.2 µM [inhibitor, single point]
COc1ccc(S(=O)(=O)c2cn(CC(=O)Nc3cc(C)ccc3C)c3ccccc3c2=O)cc1 | inactive
Cc1cccc(NC(=S)Nc2ccccn2)c1C | inconclusive: 28.2 µM [inhibitor, single point]
CNC(=S)N/N=C/c1c(C)cccc1Cl | inconclusive: 5.01 µM [inhibitor, full curve, poor fit]
Cc1nn2c(nc(N3CCCCC3)c3ccccc32)c1C=O | inactive
COc1ccc(N2CCN(C(=O)CN3C(=O)NC(c4ccc(OC)cc4)(c4ccc(OC)cc4)C3=O)CC2)cc1 | inactive
CN(C)CC(O)COc1ccc(C(C)(C)c2ccc(OCC(O)CN(C)C)cc2)cc1 (stereo unspecified) | inconclusive: 10 µM [inhibitor, partial curve]
S=c1[nH]nc(-c2ccc(Cl)cc2)n1-c1ccc2c(c1)OCCO2 | inconclusive: 5.62 µM [inhibitor, partial curve, poor fit]
Cc1ccc(CNC(=O)C(=O)NCC2OCCN2C(=O)c2ccc(Cl)cc2)cc1 (stereo unspecified) | inactive
CCC1CN(C(=O)NCc2ccc(C)cc2)c2cc(Cl)ccc2O1 (stereo unspecified) | inactive
CN(C)CCNC(=O)COc1ccc(C23CC4CC(CC(C4)C2)C3)cc1 | inconclusive: 28.2 µM [inhibitor, single point]
COc1cccc(NC(=O)c2cc(-c3ccccn3)nc3ccccc23)c1 | inconclusive: 22.4 µM [inhibitor, single point]

Compound | Potency
CC(C)(C)c1ccccc1NC(=S)NC1CCCCC1 | inconclusive: 28.2 µM [inhibitor, single point]
COc1ccccc1NC(=O)Cn1c(SCC(=O)N(C)c2ccccc2)nc2ccccc21 | inactive
CC(C)=CCc1c(O)cc2oc3c(CC=C(C)C)c(O)c(O)c(CC=C(C)C)c3c(=O)c2c1O | inconclusive: 14.1 µM [inhibitor, single point]
CCOc1ccc(C(C)=O)cc1COC(=O)c1cnc(Cl)c(Cl)c1 | inconclusive: 31.6 µM [inhibitor, single point]
O=C(c1cccc(N2CCCC2=O)c1)N1CCN(c2cccc(Cl)c2)CC1 | inconclusive: 10 µM [inhibitor, partial curve, poor fit]
Cc1ccc(S(=O)(=O)c2nnn3c2nc(NC(C)c2ccccc2)c2sccc23)cc1 (stereo unspecified) | inactive
O=C(Nc1ccncc1)Nc1ccccn1 | inactive
O=C1CC(c2cc3c(cc2Br)OCO3)C2=C(CCCC2=O)N1 (stereo unspecified) | inactive
Clc1ccc(CN2CCCCCCC2)cc1Cl | inactive
COc1cc(/C=C/C2=CC(C)(C)NC(=S)N2)cc(OC)c1OC | inconclusive: 31.6 µM [inhibitor, single point]
COc1ccc2[nH]c(=O)c(C(c3nnnn3CC3CCCO3)N3CCCCC3)cc2c1 (stereo unspecified) | inactive
COc1cc(C(=O)NCCOc2cc(C)cc(C)c2)c(Br)c(OC)c1OC | inconclusive: 28.2 µM [inhibitor, single point]
CCCCC(=O)Oc1ccc2oc(-c3ccc(OC)cc3)cc(=O)c2c1 | inactive
CCc1cc(C(N)=S)ccn1 | inactive
Cc1cc(=S)[nH]c2ccccc12 | inconclusive: 12.6 µM [inhibitor, single point]
O=C1/C(=C\c2ccc([N+](=O)[O-])cc2)CS(=O)(=O)C/C1=C/c1ccc([N+](=O)[O-])cc1 | active: 3.16 µM
CCOc1cc(CNC(=O)c2ccc(Cn3c(=O)c4cccn4c4cccnc43)cc2)ccc1OC | inactive
Cc1cccc(C(=O)OC(C)C(=O)Nc2ccc(S(=O)(=O)N3CCCC3)cc2)c1O (stereo unspecified) | inconclusive: 28.2 µM [inhibitor, single point]
Cc1cc(C)nc(SCNC(=O)c2ccc(Cl)cc2)n1 | inconclusive: 8.91 µM [inhibitor, partial curve, poor fit]
NC(=S)n1[nH]c(-c2ccc([N+](=O)[O-])cc2)c(N=Nc2cccc([N+](=O)[O-])c2)c1=O | inconclusive: 1 µM [inhibitor, full curve, poor fit]
CC1CCC(=NO)C(=NO)C1 (stereo unspecified) | inconclusive: 20 µM [inhibitor, single point]
CCOc1ccc(OCc2cccc(C(=O)Nc3ccc(CN4CCCCC4)cc3)c2)cc1 | inconclusive: 28.2 µM [inhibitor, single point]
Cn1cnc([N+](=O)[O-])c1Sc1nc(N)nc2c1ncn2C1CC(O)C(CO)O1 (stereo unspecified) | inconclusive: 10 µM [inhibitor, partial curve, poor fit]
